In all, about 33,000 sequences were measured (“E-score (-0.5 to 0.5)”: median about -0.056, highest 2% from about 0.38 on). This is one part of the list.
molecular target: Stb4 (UniProt P50104); assay: PBM E-score (8-mer binding enrichment) (E-score (-0.5 to 0.5)); higher = stronger / more preferred TF binding; most listed sequences are background and not binding sites; conditions: protein concentration: 200 nM; construct: GST-DNA-binding domain
Procedure, shortened: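 GST-tagged yeast TFs (full-length or DNA-binding domain) were made by PURExpress in vitro transcription/translation and applied at about 100-200 nM to universal all-10-mer Agilent arrays. The arrays were made double-stranded by primer extension, on fresh or once-stripped slides. Bound protein was detected with fluorescent anti-GST, and scans were normalised with masliner. Each ungapped eight-base word, pooled with its reverse complement, received an E-score (modified Wilcoxon-Mann-Whitney statistic) from the Universal PBM Analysis Suite.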

Sequence | PBM E-score
CTCATGGA | -0.192
GGGATGTA | 0.109
AAGAGACC | 0.025
GGGGAAAC | 0.136
GTATTGAC | -0.304
ACGACCGA | 0.0769
GACACTCC | 0.0561
CCAGGAGC | -0.241
TCATGAGA | -0.187
CAAAGGAG | -0.152
CATGACGA | -0.145
ATAAAGAG | -0.322
AAACGTGT | 0.00923
GACGGCCA | -0.121
GCGCCGTA | 0.0577
CACTGATG | -0.218
CAAGCCGC | -0.0428
CCCTGCCC | -0.0678
ATTGCATG | -0.045
GCTTTGTA | -0.0725
ACTTTGAG | -0.161
AGTAAATG | 0.02
AACGATCC | 0.0582
ACGGTACA | -0.022
ATCCCGTC | 0.239

Sequence | PBM E-score
CAGTCCTC | -0.159
AAGGGGGT | -0.328
AATGGTCG | 0.00338
ATCATTCG | 0.0803
TACCAGCA | -0.0785
CACCATAA | -0.121
GGGAGCAC | 0.159
GTATTTTA | 0.0257
ACCTGTGA | -0.135
AGGTGTGG | -0.154
GTCTAGGA | -0.195
AGATGGCG | -0.0367
ATAAGTCA | -0.232
TCTGAGAA | -0.171
ACTTATAA | 0.114
CAAGCCCG | -0.0424
ATCGCGAG | 0.0488
AGTAGCAG | -0.225
GAAGTTAC | 0.094
CCAATACA | -0.16
GATTGTAC | 0.0667
ACCGTGTG | 0.0479
GAGGTCTA | -0.101
CGCAATCC | 0.191
AATTACTC | -0.0609

Sequence | PBM E-score
GTTAGGCA | -0.266
ACTGTCAG | -0.125
ACCCCTCT | -0.0103
CGGCTTTC | 0.234
AGCTAGAG | -0.318
ACTCCTTC | -0.0656
CTAGAGAC | -0.25
CTCGGAAG | 0.48
GACCTCTC | 0.0438
AACTACCG | 0.3
GATAAACC | 0.123
GGGGTTGA | -0.168
ACATGTGC | -0.11
CGGGTCGA | 0.279
CCTACCGA | 0.279
AAAGGGTG | -0.126
ACGGATTG | 0.201
GATGCTGC | -0.0385
CGTTGGCA | -0.0635
AACATCGT | -0.0992
CTGACGCC | -0.148
CTGCCCCC | -0.325
AAAGGTAG | -0.179
ACCACCTA | -0.0883
ATCCCTAG | -0.189

Sequence | PBM E-score
CACTGAAC | -0.116
ACGCGGTC | 0.0801
GCATTGCA | 0.0364
AAGGGCAC | -0.16
CGGAGTCC | 0.193
CGCGGCTA | 0.293
ACGCAACC | 0.0335
ACTCATAA | 0.0144
AGCTCATG | -0.178
CTCTAAAG | -0.141
CCAAATAG | -0.296
CTGAAAAC | -0.0747
CATAAATA | -0.131
CGGTGTAC | 0.0223
GAGGTATC | 0.0468
TCGAACGA | -0.287
ATACTGAC | -0.025
CGCCCCAC | 0.0226
AACGAGCC | 0.024
AGCTTGCC | 0.0179
AGGACTCC | 0.055
GCGATGGA | 0.141
AGTATATA | 0.082
CCACTAGA | -0.152
ACGTGGAG | -0.318

Sequence | PBM E-score
CCGGCTAC | 0.284
AGACTGTC | -0.131
CCCACGAG | -0.217
CTTGCCTC | 0.132
ATGCCCTA | -0.097
CCTCTTCG | -0.0569
ACCGTTAT | -0.0172
ACTCATCA | -0.0422
AATCGATA | -0.122
AGGCACCA | -0.186
CCTCCAAG | -0.248
ATTAACAA | -0.072
GAACACCA | 0.0969
AGAGCCCG | 0.0781
AATAGTTA | -0.157
ACGCCTAC | -0.175
GAATGACC | 0.145
CCTTCCGC | 0.306
ACCCATCC | 0.0282
AAGTGGGG | -0.102
GAGCAATA | 0.0515
AGCACTTC | -0.0296
CATTAGTA | -0.0878
TCGATAGA | -0.149
TCATCAAA | -0.192

Sequence | PBM E-score
TCGTTAAA | -0.00399
CACATCTC | -0.0712
AAGTGGAG | -0.19
AACGGTGA | 0.0142
AATACAAT | 0.025
ATCCGTTC | 0.351
CACGACGA | -0.218
ATGAGATC | -0.124
CAAATTAA | -0.0577
CAAAACGA | -0.19
GAGGATCC | 0.226
GTCTCGTA | -0.115
ACACATGC | -0.0497
AATCATGC | -0.0782
CTCAAGCA | -0.384
TAAACAGA | -0.175
ATCACCTA | -0.308
CATTCTGC | -0.0202
TTCGTCAA | -0.00701
CCCCATGC | -0.129
AAGAACGT | -0.177
CTACTATC | 0.149
ATCAGTAC | -0.0578
CAGACCCG | 0.331
ACGGGCAA | -0.0358

Sequence | PBM E-score
GTCTAAAC | 0.081
CAATTCAG | -0.223
GCGTATGA | -0.054
AATTATAG | -0.0977
AACCAATG | -0.08
AAGCCAAC | -0.186
ATCAACAT | -0.199
AGGTAAGA | -0.0731
CTAGCGAG | -0.227
TGCCTCCA | -0.348
CAGCGTGC | -0.0607
ATTTTCAC | -0.00731
CCAGTCCC | -0.0404
AGGATAAG | -0.0142
CGAATATC | 0.1
CACCTGAG | -0.337
GACCAGGA | -0.103
TGGGTGAA | -0.0129
GCGGCTAA | 0.287
ACAGGAAT | -0.141
CGATCGAC | 0.102
ATTCAATA | -0.108
TAGCATGA | -0.313
TATTCTAA | -0.0561
TTCATCAA | -0.0251

Sequence | PBM E-score
CAGTCTAG | -0.271
AGTTTCCG | 0.437
ATTGGGCA | -0.164
ACGGCCCA | 0.00132
ATCGCTGG | -0.136
CTAGGTCA | -0.298
ACGTAGAA | -0.0733
TGAATCAA | -0.0114
ATCATCTC | 0.00896
AAACACCA | -0.187
GTTCAACA | 0.0397
TAAGGTCA | -0.258
AATCGGCG | 0.25
CCATAAGG | -0.314
ACGTCGCT | -0.198
CACTGCAA | -0.0264
GGTTCCAC | -0.0389
CGCCCGGA | 0.328
GTATAGGA | -0.287
AAGTTCCC | 0.191
GCCCCAGC | -0.121
AGGACTTG | -0.0809
GCGAAGGA | -0.0873
ATTCCACA | 0.0771
AAAGTCTA | -0.0867

Sequence | PBM E-score
GAGAACAA | 0.0423
ACTGACGC | -0.366
CACCTTCC | 0.0911
TGCTGCCA | -0.157
CCCATCAA | -0.122
GGATCCTA | 0.122
CTCGCGGA | 0.21
CCATCCAG | -0.194
GACATTGA | 0.116
AAATAGCA | -0.152
ATTTCCAA | 0.0026
AGCTTTAT | -0.099
CACTAGAC | -0.0182
AGCTCACA | -0.192
ACTGCTAA | -0.204
ATAGTGCA | 0.0253
ACGAGCGT | -0.23
CGTCTGGA | -0.213
AGCCATGC | -0.0583
AACTTAGA | -0.125
AGATGGGG | -0.322
ACACACAA | -0.0284
CGAGGACC | 0.0985
AGCTGAGG | -0.186
CCGGTTCG | 0.218

Sequence | PBM E-score
CGAGCGCC | 0.0887
ACCCCTAA | -0.135
ACAAACGT | -0.162
ACAAAGGT | -0.0706
CCAACCGA | 0.261
AGGCCCCA | -0.094
GATGCAGA | -0.0525
CCTGAACG | 0.0809
CTAACGAG | -0.0397
ATGTTGGA | 0.0927
AAAAAACT | -0.0784
ATGTCTAC | -0.0761
GATACATC | -0.0611
GGTTTTCA | 0.0509
GCTTTCCA | -0.0364
AGGGGAAC | -0.196
ACTTTAGC | 0.0442
AAGATGCC | 0.0428
CTCCAAAG | -0.148
AGGTATGG | 0.0672
CATAAACC | -0.00173
CCTACTCG | 0.0849
TTCTAAAA | 0.0167
GTTAAAAC | 0.0832
GACCTAGA | -0.115

Sequence | PBM E-score
CGCGTTAC | -0.0755
CATAACGG | 0.0556
CGTCCTAA | -0.236
ATAATGCC | 0.157
TACTCTGA | -0.154
CATTTCCC | 0.18
GCGTGCAC | -0.00405
AACAACTG | -0.121
GATAAGGA | 0.0892
GGAAATGA | 0.153
AACACTAA | -0.105
CGCTAGCA | -0.185
AATCACGT | -0.0316
GCACGAAC | -0.087
AGAGCACG | -0.0543
GGAATCAC | 0.244
CCATCTAA | -0.0679
AGGCCGAG | 0.239
TGGCTGAA | -0.145
ATGTCGGG | 0.307
CAGATCGA | -0.0966
CCCCCACG | -0.148
GTCATGCA | -0.0475
ACATCGGA | 0.346
AGCCTGTG | -0.181

Sequence | PBM E-score
GACTTTAA | 0.00489
CACTGCCG | 0.259
ATCTCTAC | -0.146
AAATTAAG | -0.00797
AGTTATTA | -0.143
CTATAACC | -0.0401
CCATGCGG | -0.0615
CTTCCTGC | -0.234
CAGTGCTA | -0.0892
AGGATTTC | -0.0426
ACGGGTCT | 0.0222
CCTGTCAG | -0.0739
AAGTAGCA | -0.19
ACTGCGCC | -0.166
ATGGAACC | 0.0684
ACAACTTA | -0.252
AGACAGGG | -0.178
ATAACAAA | 0.0168
ACCTTGTG | -0.217
GTCCGTTA | 0.16
CGAATAGC | -0.0664
AAAATACA | -0.145
GAAGGGCA | 0.0424
CAGTCACC | -0.0586
GGCTTGGA | -0.277

Sequence | PBM E-score
CCGATGCG | 0.306
CGGTACGA | 0.237
ACCCATTA | 0.0384
AAGGGGCT | -0.152
CAAGTGTG | -0.103
GTGCTTGA | -0.21
CCCACGCG | -0.0488
CGAACACG | 0.191
GCGTATCC | -0.0185
GGCGGACA | -0.0148
AATTGCCG | 0.338
ACTCCCCG | 0.188
GCCAGTTA | -0.0648
CGACCCTA | 0.0884
CTTAAATA | -0.124
AGTCGTAT | -0.147
GGTGACCA | -0.12
CTAATTAC | -0.0371
GGTAATAA | 0.221
AGCAATAT | -0.227
AGAGTCAA | 0.016
CGAAGCCG | 0.275
ACATGCTA | -0.254
AGGTAGCA | -0.255
CATGGGAA | -0.0115

Sequence | PBM E-score
CTTGTGGA | -0.287
ATGTACGG | 0.049
CGCGTTTA | 0.0227
AAGGAGAC | -0.151
CGAAGTCG | 0.263
ACCATAGG | -0.262
AATAAAAA | -0.015
GAGTTAGA | -0.116
GATGGTAA | -0.00489
AGTTGGCG | -0.00026
GATTATCA | 0.0201
CGACGTCG | 0.0065
GACAGAGA | -0.129
TTCTGAAA | -0.219
ATACTGTA | 0.038
CATTTGCC | -0.0859
ACAACCGG | 0.221
GACGTCTA | -0.113
CGAGTACC | 0.182
